# Several values for one entry are separate records, joined by “and”; a condition that tells them apart may be missing. Equal values may be shown once. Inconclusive means that the source gave no clear call. Such entries were picked first, then a sample of the others. For some assays here: Where the call is inconclusive, the potency comes from a doubtful curve fit. Where a structure was tested more than once in an assay, its records may differ in their call. Activity calls are given as the source filed them. Unless noted, calls follow the shape of the dose curve; as a rule, active = well fitted curve in the direction sought with a large enough effect in the repeat runs; inconclusive = weak or mixed curves; inactive = no such curve, though single readings can be large; an effect the other way counts as inactive or inconclusive.
# Assays:
# [1] = molecular target: Progesterone receptor (Homo sapiens) (UniProt P06401); assay: qHTS assay to identify small molecule agonists of the progesterone receptor (PR) signaling pathway (AID 1346784; calls by dose curve; also: nearly all actives have a fitted effect of over 30% in size; also: potency is read from the fitted curve at half-maximal effect; as to activation: % is scaled to controls: 0 for no effect and ±100 for the full control effect); conditions: PR-UAS-bla HEK293T, beta-lactamase FRET ratio, 16 h; activation: at 92.4 µM (top of the series) unless noted
# Sequence of UniProt P06401 (P06401 whole entry, looked up): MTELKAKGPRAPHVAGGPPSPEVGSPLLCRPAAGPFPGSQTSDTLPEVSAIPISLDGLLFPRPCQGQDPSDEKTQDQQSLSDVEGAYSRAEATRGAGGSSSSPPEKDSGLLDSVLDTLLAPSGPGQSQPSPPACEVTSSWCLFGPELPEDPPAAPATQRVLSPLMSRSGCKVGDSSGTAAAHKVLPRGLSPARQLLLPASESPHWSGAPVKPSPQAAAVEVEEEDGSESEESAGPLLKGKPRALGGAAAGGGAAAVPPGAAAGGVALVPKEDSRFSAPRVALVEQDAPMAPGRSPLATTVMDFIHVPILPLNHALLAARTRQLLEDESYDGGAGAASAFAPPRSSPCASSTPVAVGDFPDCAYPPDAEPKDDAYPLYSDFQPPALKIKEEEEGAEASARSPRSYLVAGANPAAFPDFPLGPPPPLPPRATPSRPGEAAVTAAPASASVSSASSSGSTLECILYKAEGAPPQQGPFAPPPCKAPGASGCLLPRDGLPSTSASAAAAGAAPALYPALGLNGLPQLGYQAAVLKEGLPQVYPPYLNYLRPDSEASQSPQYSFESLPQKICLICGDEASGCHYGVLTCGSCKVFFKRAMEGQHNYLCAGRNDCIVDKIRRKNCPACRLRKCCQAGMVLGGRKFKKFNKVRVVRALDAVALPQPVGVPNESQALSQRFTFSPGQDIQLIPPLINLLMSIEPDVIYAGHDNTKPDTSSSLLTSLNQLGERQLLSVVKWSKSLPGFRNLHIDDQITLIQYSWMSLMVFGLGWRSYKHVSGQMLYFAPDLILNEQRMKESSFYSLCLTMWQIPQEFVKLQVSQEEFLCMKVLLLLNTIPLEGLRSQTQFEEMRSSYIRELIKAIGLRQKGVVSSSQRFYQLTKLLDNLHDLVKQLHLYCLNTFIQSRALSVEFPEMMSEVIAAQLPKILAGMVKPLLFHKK
# Method in brief: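 PR-UAS-bla HEK 293T cells (beta-lactamase reporter under UAS) in 2% charcoal-stripped FBS, dosed with 23 nL compound after 6 hr, incubated 16hr at 37C. LiveBLAzer B/G FRET substrate added, fluorescence read after 2 hours.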
# [2] = molecular target: Progesterone receptor (Homo sapiens) (UniProt P06401); assay: qHTS assay to identify small molecule antagonists of the progesterone receptor (PR) signaling pathway (AID 1346795; active = well fitted inhibition curve with a large enough effect in the signal ratio in the repeat runs, not every such curve was filed as active; inconclusive = weak or mixed curves; the % refers to the signal ratio; also: potency is read from the fitted curve at half-maximal effect; as to activity change, negative = inhibition: % is scaled to controls: 0 for no effect and ±100 for the full control effect); conditions: PR-UAS-bla HEK293T, beta-lactamase FRET ratio, 16 h; activity change, negative = inhibition: at 92.4 µM (top of the series) unless noted
# Method in brief: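 PR-UAS-bla HEK293T cells with beta-lactamase reporter under UAS control, in 2% charcoal-stripped FBS, treated with compounds plus 1 nM promegestone (R5020, final) for 16 hr at 37C. Read-out: FRET beta-lactamase substrate fluorescence after 2 hr at room temperature.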
# [3] = qHTS assay to identify small molecule antagonists of the progesterone receptor (PR) signaling pathway - cell viability counter screen (AID 1346798); also: potency is read from the fitted curve at half-maximal effect; nearly all actives have a fitted effect of over 50% in size
# Method in brief: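 PR-UAS-bla HEK293T cells, 3,000/well in 2% charcoal-stripped FBS medium, dosed with compounds plus R5020 agonist and incubated 16 h at 37C. Viability then measured in the same wells by CellTiter-Glo luminescence after 30 min at RT.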
# [4] = qHTS assay to identify small molecule agonists of the progesterone receptor (PR) signaling pathway - cell viability counter screen (AID 1346799; calls by dose curve; also: nearly all actives have a fitted effect of over 45% in size; also: potency is read from the fitted curve at half-maximal effect)
# Method in brief: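 Counter screen in the PR-UAS-bla HEK293T wells (2% charcoal-stripped FBS, 16 h compound exposure at 37 C) after the bla read. CellTiter-Glo added, 30 min at room temperature, luminescence read as cell viability.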
# [5] = qHTS assay to identify small molecule antagonists of the TGF-beta/Smad signaling pathway - cell viability counter screen (AID 1346824); also: nearly all actives have a fitted effect of over 50% in size; also: potency is read from the fitted curve at half-maximal effect
# Method in brief: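 SBE-bla HEK 293T cells, incubated overnight, then compound plus 0.25 ng/mL TGF-beta1 (stock added) for 5 hr at 37 C. Viability was read in the same wells by CellTiter-Glo luminescence after 30 min at room temperature.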
# [6] = qHTS assay to identify small molecule antagonists of the TGF-beta/Smad signaling pathway (AID 1346924; active = well fitted inhibition curve with a large enough effect in the signal ratio in the repeat runs, not every such curve was filed as active; inconclusive = weak or mixed curves; the % refers to the signal ratio); conditions: SBE-bla HEK293T, TGF-beta/Smad reporter, beta-lactamase ratio
# Method in brief: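 SBE-bla HEK 293T cells were plated overnight, then received compound in DMSO plus TGF-beta1 (added as a 0.25 ng/mL solution) and were incubated 5 h at 37 C. Beta-lactamase reporter activity was read after 2 h at room temperature with LiveBLAzer B/G FRET substrate (ex 405, em 460/530 nm).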
# [7] = Human pregnane X receptor (PXR) small molecule agonists, qHTS cell viability counter screen (AID 1346977); also: potency is read from the fitted curve at half-maximal effect; nearly all actives have a fitted effect of over 50% in size
# Method in brief: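 PXR-Luc HepG2 cells (2,000/well, 5% charcoal-stripped FBS) preincubated 5 hr, then exposed to compounds 24 hr at 37 C. Viability read in the same wells by CellTiter-Fluor fluorescence, reagent added at 23 hr, 1 hr incubation.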
# [8] = qHTS assay to identify small molecule agonists of the TGF-beta/Smad signaling pathway - cell viability counter screen (AID 1346829); also: potency is read from the fitted curve at half-maximal effect; nearly all actives have a fitted effect of over 45% in size
# Method in brief: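 Luminescence from CellTiter-Glo, read after a 30 min room-temperature incubation, gives cell viability of SBE-bla HEK 293T cells treated 5 hr with compounds at 37 C.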
# [9] = qHTS assay to identify small molecule agonists of the TGF-beta/Smad signaling pathway (AID 1346859; active = well fitted activation curve with a large enough effect in the signal ratio in the repeat runs, not every such curve was filed as active; inconclusive = weak or mixed curves; the % refers to the signal ratio; also: potency is read from the fitted curve at half-maximal effect); conditions: SBE-bla HEK293T, TGF-beta/Smad beta-lactamase reporter, 5 h; activation: at 76.8 µM (top of the series)
# Method in brief: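 SBE-bla HEK293T cells plated overnight, then compound exposure for 5 h at 37 C. Beta-lactamase reporter read with LiveBLAzer B/G FRET substrate after 2 h at room temperature, fluorescence at 405 nm excitation, 460/530 nm emission.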
# Tags tell the direction and shape of the fitted curve or compound fluorescence and quenching.
compound,measurement,setting,value
CN(C)CCC=C1c2ccccc2CCc2ccccc21,Potency,[1],"inconclusive: 68.6 µM [cytotoxic, single point]"
same,Potency,[2],inconclusive: 68.6 µM and active: 54.5 µM
same,"activity change, negative = inhibition",[2],inconclusive: -30.7% [at 42.5 µM]
same,Potency,[3],active: 61.1 µM and active: 30.6 µM and active: 16.8 µM
same,Potency,[4],active: 54.5 µM and active: 15.4 µM and active: 16.8 µM
same,Potency,[5],inactive
same,"activity, negative = inhibition","[6]; activity, negative = inhibition: at 76.8 µM (top of the series) unless noted",inconclusive: -19.7%
same,Potency,[7],active: 44.7 µM and active: 48.6 µM and active: 26.6 µM
CCCCCCCCCCCCCCCCCCNC(=O)OC1CCN(C(=O)OC[C@H](COC(=O)N(Cc2cccc[n+]2CC)C(=O)c2ccccc2OC)OC)CC1,Potency,[1],"inconclusive: 26.6 µM [falling, partial curve]"
same,Potency,[2],"inconclusive: 33.5 µM [falling, single point]"
same,Potency,[3],inconclusive: 33.5 µM [cytotoxic]
same,Potency,[4],"inconclusive: 33.5 µM [cytotoxic, single point]"
same,Potency,[5],"inconclusive: 26.8 µM [cytotoxic, single point]"
same,Potency,[8],"inconclusive: 26.8 µM [cytotoxic, single point]"
same,Potency,[9],"inconclusive: 0.268 µM [falling, partial curve, poor fit]"
O=c1[nH]sc2ccccc12,Potency,[1],inconclusive: 61.1 µM [cytotoxic]
same,Potency,[2],inconclusive: 19.3 µM
same,Potency,[3],active: 27.3 µM
same,Potency,[4],active: 30.6 µM
Clc1ccc2c(c1)C(N1CCNCC1)=Nc1ccccc1O2,Potency,[1],"inconclusive: 0.596 µM [falling, full curve, poor fit]"
same,activation,[1],inconclusive: -6.94%
same,Potency,[2],active: 5.45 µM
same,Potency,[4],inactive
same,"activity, negative = inhibition",[6]; at 35.3 µM (top of the series),inconclusive: 1.08%
same,"activity, negative = inhibition",[6]; at 76.8 µM (top of the series),inconclusive: 0.667%
same,Potency,[7],"inconclusive: 68.6 µM [cytotoxic, single point] and active: 29.8 µM"
O=c1c(O)c(-c2ccc(O)cc2)oc2cc(O)cc(O)c12,Potency,[1],"inconclusive: 26 µM [falling, partial curve, poor fit]"
same,Potency,[2],inconclusive: 5.43 µM and active: 5.19 µM
same,Potency,[3],"inconclusive: 48.4 µM [rising, partial curve] and inconclusive: 36.8 µM [rising, partial curve]"
same,Potency,[4],"inconclusive: 48.4 µM [rising, partial curve] and inconclusive: 29.2 µM [rising, partial curve]"
same,Potency,[5],"inconclusive: 37.1 µM [rising, single point]"
same,Potency,[8],"inconclusive: 29.5 µM [rising, partial curve, poor fit]"
COC(=O)C1=C(C)NC(C)=C(C(=O)OCC(C)C)C1c1ccccc1[N+](=O)[O-] (configuration not stated),Potency,[1],"inconclusive: 29.8 µM [falling, single point]"
same,activation,[1],inconclusive: -23.9%
same,"activity, negative = inhibition",[6]; at 35.3 µM (top of the series),inconclusive: 3.01%
same,"activity, negative = inhibition",[6]; at 76.8 µM (top of the series),inconclusive: -0.722%
same,Potency,[7],active: 61.1 µM and inconclusive: 33.5 µM [cytotoxic]
CCC(C)Nc1ccc(NC(C)CC)cc1 (configuration not stated),activation,[1],inconclusive: -20.1%
same,Potency,[2],active: 55.5 µM
same,Potency,[3],"inconclusive: 69.9 µM [cytotoxic, single point]"
same,Potency,[4],"inconclusive: 78.4 µM [cytotoxic, single point]"
same,Potency,[5],active: 25 µM
same,Potency,[8],active: 39.7 µM
same,Potency,[9],"inconclusive: 19.9 µM [rising, single point]"
O=C1c2c(O)ccc([N+](=O)[O-])c2C(=O)c2c([N+](=O)[O-])ccc(O)c21,Potency,[1],"inconclusive: 24.1 µM [cytotoxic, partial curve]"
same,Potency,[2],"inconclusive: 2.15 µM [rising, full curve]"
same,Potency,[3],active: 24.1 µM
same,Potency,[4],"inconclusive: 24.1 µM [cytotoxic, partial curve, poor fit]"
same,Potency,[5],active: 48.5 µM
same,Potency,[8],active: 48.5 µM
Nc1cc(Cl)c(-c2cc(Cl)c(N)cc2Cl)cc1Cl,Potency,[1],inconclusive: 68.5 µM [cytotoxic]
same,activation,[1],inconclusive: -9.88%
same,Potency,[3],active: 38.5 µM and active: 43.3 µM
same,Potency,[4],active: 30.6 µM and active: 21.7 µM
same,Potency,[5],"inconclusive: 1.38 µM [cytotoxic, full curve, poor fit] and inconclusive: 54.9 µM [cytotoxic, single point]"
same,Potency,[8],"inconclusive: 54.9 µM [cytotoxic, single point]"
same,Potency,[7],active: 50.1 µM and active: 68.6 µM
Oc1ccc(C2(c3ccc(O)cc3)CC3CC2C2CCCC32)cc1 (configuration not stated),activation,[1],inconclusive: -19.9%
same,Potency,[2],"inconclusive: 65.9 µM [falling, single point]"
same,Potency,[3],active: 41.6 µM
same,Potency,[4],active: 58.7 µM
same,Potency,[5],"inconclusive: 59.2 µM [cytotoxic, single point]"
